# The other results are listed elsewhere or left out.
# B1: rAAL-H59Q (Agrocybe aegerita), Q6WY08 (protein)
# chain: MQGVNIYNISAGTSVDLAAPVTTGDIVTFFSSALNLNAGAGNPNNTTLNLFAENGAYLLQIAFRLQENVIIFNSRQPDGPWLVEQRVSDVANQFAGIDGKAMVTVFDHGDKYQVVINEKTVIQYTKQISGLTLSLSYNATEETSIFSTVVEAVTYTGLALEHHHHHH
# Legend:
# Experiment in all cases: glycan array binding signal (z-score within array); higher = stronger binding
# Conditions in all cases: glycan notation: IUPAC condensed, linker removed; mutation: H59Q
# Fuc(a1-2)Gal = target: Fuc(a1-2)Gal
# Summary of the method: (§1)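 From the Consortium for Functional Glycomics database, 3228 arrays were curated, keeping only those whose protein sequence was available. Binding is given as a within-array Z-score averaged across arrays sharing a protein sequence and across linkers. Negative Z-scores can be read as non-binding.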
# Fuc(a1-2)Gal(b1-3)GalNAc = target: Fuc(a1-2)Gal(b1-3)GalNAc
# Summary of the method: as §1
# [1] = target: Fuc(a1-2)Gal(b1-3)GalNAc(a1-3)[Fuc(a1-2)]Gal(b1-4)Glc
# Summary of the method: as §1
# [2] = target: Fuc(a1-2)Gal(b1-3)GalNAc(a1-3)[Fuc(a1-2)]Gal(b1-4)GlcNAc
# Summary of the method: as §1
# [3] = target: Fuc(a1-2)Gal(b1-3)GalNAc(b1-3)Gal
# Summary of the method: as §1
# [4] = target: Fuc(a1-2)Gal(b1-3)GalNAc(b1-3)Gal(a1-4)Gal(b1-4)Glc
# Summary of the method: as §1
# [5] = target: Fuc(a1-2)Gal(b1-3)GalNAc(b1-4)[Neu5Ac(a2-3)]Gal(b1-4)Glc
# Summary of the method: as §1
# Fuc(a1-2)Gal(b1-3)GlcNAc = target: Fuc(a1-2)Gal(b1-3)GlcNAc
# Summary of the method: as §1
# [6] = target: Fuc(a1-2)Gal(b1-3)GlcNAc(b1-2)Man(a1-3)[Fuc(a1-2)Gal(b1-3)GlcNAc(b1-2)Man(a1-6)]Man(b1-4)GlcNAc(b1-4)GlcNAc
# Summary of the method: as §1
# [7] = target: Fuc(a1-2)Gal(b1-3)GlcNAc(b1-2)Man(a1-3)[Fuc(a1-2)Gal(b1-3)GlcNAc(b1-2)Man(a1-6)]Man(b1-4)GlcNAc(b1-4)[Fuc(a1-6)]GlcNAc
# Summary of the method: as §1
# [8] = target: Fuc(a1-2)Gal(b1-3)GlcNAc(b1-3)Gal(b1-4)Glc
# Summary of the method: as §1
# [9] = target: Fuc(a1-2)Gal(b1-3)GlcNAc(b1-3)GalNAc
# Summary of the method: as §1
# [10] = target: Fuc(a1-2)Gal(b1-3)GlcNAc(b1-3)[Fuc(a1-2)Gal(b1-3)GlcNAc(b1-6)]GalNAc
# Summary of the method: as §1
# [11] = target: Fuc(a1-2)Gal(b1-3)GlcNAc(b1-3)[Gal(b1-4)GlcNAc(b1-6)]Gal(b1-4)Glc
# Summary of the method: as §1
# [12] = target: Fuc(a1-2)Gal(b1-3)GlcNAc(b1-3)[Neu5Ac(a2-6)Gal(b1-4)GlcNAc(b1-6)]Gal(b1-4)Glc
# Summary of the method: as §1
# [13] = target: Fuc(a1-2)Gal(b1-3)GlcNAc6S
# Summary of the method: as §1
# [14] = target: Fuc(a1-2)Gal(b1-3)[Fuc(a1-4)]GlcNAc
# Summary of the method: as §1
# [15] = target: Fuc(a1-2)Gal(b1-3)[Fuc(a1-4)]GlcNAc(b1-2)Man(a1-3)[Fuc(a1-2)Gal(b1-3)[Fuc(a1-4)]GlcNAc(b1-2)Man(a1-3)]Man(b1-4)GlcNAc(b1-4)GlcNAc
# Summary of the method: as §1
# [16] = target: Fuc(a1-2)Gal(b1-3)[Fuc(a1-4)]GlcNAc(b1-2)Man(a1-3)[Fuc(a1-2)Gal(b1-3)[Fuc(a1-4)]GlcNAc(b1-2)Man(a1-6)]Man(b1-4)GlcNAc(b1-4)[Fuc(a1-6)]GlcNAc(b1-4)[Fuc(a1-6)]GlcNAc
# Summary of the method: as §1
# [17] = target: Fuc(a1-2)Gal(b1-3)[Fuc(a1-4)]GlcNAc(b1-3)[Fuc(a1-3)[Gal(b1-4)]GlcNAc(b1-6)]Gal(b1-4)Glc
# Summary of the method: as §1
# [18] = target: Fuc(a1-2)Gal(b1-3)[Fuc(a1-4)]GlcNAc(b1-3)[Gal(b1-4)GlcNAc(b1-6)]Gal(b1-4)Glc
# Summary of the method: as §1
# [19] = target: Fuc(a1-2)Gal(b1-4)Fuc(a1-3)]GlcNAc(b1-2)Man(a1-3)[Fuc(a1-2)Gal(b1-4)[Fuc(a1-3)]GlcNAc(b1-2)Man(a1-6)]Man(b1-4)GlcNAc(b1-4)GlcNAc
# Summary of the method: as §1
# Fuc(a1-2)Gal(b1-4)Glc = target: Fuc(a1-2)Gal(b1-4)Glc
# Summary of the method: as §1
# Fuc(a1-2)Gal(b1-4)Glc6S = target: Fuc(a1-2)Gal(b1-4)Glc6S
# Summary of the method: as §1
# Fuc(a1-2)Gal(b1-4)GlcNAc = target: Fuc(a1-2)Gal(b1-4)GlcNAc
# Summary of the method: as §1
# [20] = target: Fuc(a1-2)Gal(b1-4)GlcNAc(b1-2)Man
# Summary of the method: as §1
# [21] = target: Fuc(a1-2)Gal(b1-4)GlcNAc(b1-2)Man(a1-3)[Fuc(a1-2)Gal(b1-4)GlcNAc(b1-2)Man(a1-6)]Man(b1-4)GlcNAc(b1-4)GlcNAc
# Summary of the method: as §1
# [22] = target: Fuc(a1-2)Gal(b1-4)GlcNAc(b1-2)Man(a1-3)[Fuc(a1-2)Gal(b1-4)GlcNAc(b1-2)Man(a1-6)]Man(b1-4)GlcNAc(b1-4)[Fuc(a1-6)]GlcNAc
# Summary of the method: as §1
# [23] = target: Fuc(a1-2)Gal(b1-4)GlcNAc(b1-2)[Fuc(a1-2)Gal(b1-4)GlcNAc(b1-4)]Man(a1-3)[Fuc(a1-2)Gal(b1-4)GlcNAc(b1-2)Man(a1-6)]Man(b1-4)GlcNAc(b1-4)GlcNAc
# Summary of the method: as §1
# [24] = target: Fuc(a1-2)Gal(b1-4)GlcNAc(b1-3)Gal(b1-4)GlcNAc
# Summary of the method: as §1
# [25] = target: Fuc(a1-2)Gal(b1-4)GlcNAc(b1-3)Gal(b1-4)GlcNAc(b1-2)Man(a1-3)[Fuc(a1-2)Gal(b1-4)GlcNAc(b1-3)Gal(b1-4)GlcNAc(b1-2)Man(a1-6)]Man(b1-4)GlcNAc(b1-4)GlcNAc
# Summary of the method: as §1
# [26] = target: Fuc(a1-2)Gal(b1-4)GlcNAc(b1-3)Gal(b1-4)GlcNAc(b1-3)Gal(b1-4)GlcNAc
# Summary of the method: as §1
# [27] = target: Fuc(a1-2)Gal(b1-4)GlcNAc(b1-3)GalNAc
# Summary of the method: as §1
# [28] = target: Fuc(a1-2)Gal(b1-4)GlcNAc(b1-3)[Fuc(a1-2)Gal(b1-4)GlcNAc(b1-6)]GalNAc
# Summary of the method: as §1
# [29] = target: Fuc(a1-2)Gal(b1-4)GlcNAc(b1-3)[Fuc(a1-3)[Gal(b1-4)]GlcNAc(b1-6)]Gal(b1-4)Glc
# Summary of the method: as §1
# [30] = target: Fuc(a1-2)Gal(b1-4)GlcNAc(b1-6)GalNAc
# Summary of the method: as §1
# [31] = target: Fuc(a1-2)Gal(b1-4)GlcNAc6S
# Summary of the method: as §1
# [32] = target: Fuc(a1-2)Gal(b1-4)[Fuc(a1-3)]GlcNAc
# Summary of the method: as §1
# [33] = target: Fuc(a1-2)Gal(b1-4)[Fuc(a1-3)]GlcNAc(b1-2)Man(a1-3)[Fuc(a1-2)Gal(b1-4)[Fuc(a1-3)]GlcNAc(b1-2)Man(a1-6)]Man(b1-4)GlcNAc(b1-4)[Fuc(a1-6)]GlcNAc
# Summary of the method: as §1
# [34] = target: Fuc(a1-2)Gal(b1-4)[Fuc(a1-3)]GlcNAc(b1-2)[Fuc(a1-2)Gal(b1-4)[Fuc(a1-3)]GlcNAc(b1-4)]Man(a1-3)[Fuc(a1-2)Gal(b1-4)[Fuc(a1-3)]GlcNAc(b1-2)Man(a1-6)]Man(b1-4)GlcNAc(b1-4)GlcNAc
# Summary of the method: as §1
# [35] = target: Fuc(a1-2)Gal(b1-4)[Fuc(a1-3)]GlcNAc(b1-3)Gal(b1-4)[Fuc(a1-3)]GlcNAc
# Summary of the method: as §1
# [36] = target: Fuc(a1-2)Gal(b1-4)[Fuc(a1-3)]GlcNAc(b1-3)Gal(b1-4)[Fuc(a1-3)]GlcNAc(b1-3)Gal(b1-4)[Fuc(a1-3)]GlcNAc
# Summary of the method: as §1
# [37] = target: Fuc(a1-2)Gal(b1-4)[Fuc(a1-3)]GlcNAc(b1-3)GalNAc
# Summary of the method: as §1
# [38] = target: Fuc(a1-2)Gal(b1-4)[Fuc(a1-3)]GlcNAc(b1-3)[Neu5Ac(a2-6)Gal(b1-4)GlcNAc(b1-6)]Gal(b1-4)Glc
# Summary of the method: as §1
# [39] = target: Fuc(a1-2)Gal3S(b1-4)GlcNAc
# Summary of the method: as §1
binder,measurement,setting,value
B1,glycan array binding signal (z-score),Fuc(a1-2)Gal,-0.098
same,glycan array binding signal (z-score),Fuc(a1-2)Gal(b1-3)GalNAc,-0.081
same,glycan array binding signal (z-score),[1],-0.155
same,glycan array binding signal (z-score),[2],-0.081
same,glycan array binding signal (z-score),[3],-0.096
same,glycan array binding signal (z-score),[4],-0.127
same,glycan array binding signal (z-score),[5],-0.058
same,glycan array binding signal (z-score),Fuc(a1-2)Gal(b1-3)GlcNAc,-0.059
same,glycan array binding signal (z-score),[6],-0.039
same,glycan array binding signal (z-score),[7],-0.104
same,glycan array binding signal (z-score),[8],-0.028
same,glycan array binding signal (z-score),[9],-0.124
same,glycan array binding signal (z-score),[10],-0.1
same,glycan array binding signal (z-score),[11],-0.069
same,glycan array binding signal (z-score),[12],-0.08
same,glycan array binding signal (z-score),[13],0.075
same,glycan array binding signal (z-score),[14],-0.092
same,glycan array binding signal (z-score),[15],-0.014
same,glycan array binding signal (z-score),[16],-0.016
same,glycan array binding signal (z-score),[17],-0.104
same,glycan array binding signal (z-score),[18],-0.083
same,glycan array binding signal (z-score),[19],-0.035
same,glycan array binding signal (z-score),Fuc(a1-2)Gal(b1-4)Glc,-0.115
same,glycan array binding signal (z-score),Fuc(a1-2)Gal(b1-4)Glc6S,-0.072
same,glycan array binding signal (z-score),Fuc(a1-2)Gal(b1-4)GlcNAc,-0.068
same,glycan array binding signal (z-score),[20],-0.136
same,glycan array binding signal (z-score),[21],-0.063
same,glycan array binding signal (z-score),[22],0.03
same,glycan array binding signal (z-score),[23],-0.09
same,glycan array binding signal (z-score),[24],-0.144
same,glycan array binding signal (z-score),[25],-0.116
same,glycan array binding signal (z-score),[26],-0.113
same,glycan array binding signal (z-score),[27],-0.077
same,glycan array binding signal (z-score),[28],-0.088
same,glycan array binding signal (z-score),[29],-0.078
same,glycan array binding signal (z-score),[30],-0.099
same,glycan array binding signal (z-score),[31],-0.085
same,glycan array binding signal (z-score),[32],-0.09
same,glycan array binding signal (z-score),[33],0.171
same,glycan array binding signal (z-score),[34],-0.047
same,glycan array binding signal (z-score),[35],-0.063
same,glycan array binding signal (z-score),[36],-0.059
same,glycan array binding signal (z-score),[37],-0.048
same,glycan array binding signal (z-score),[38],-0.107
same,glycan array binding signal (z-score),[39],-0.159
